{"source": "patent US20090054323A1", "about": "(published 2009)", "note": "Values joined by “and” are separate entries in the source; they are usually repeats but may differ in a detail not shown here. Identical values can stand only once."}
{"target": "T1, murine Ang-2 (murine, UniProt O35608 19-496, limits assumed)", "T1 construct": "also called mAng-2; mouse Ang-2", "T1 sequence (looked up)": "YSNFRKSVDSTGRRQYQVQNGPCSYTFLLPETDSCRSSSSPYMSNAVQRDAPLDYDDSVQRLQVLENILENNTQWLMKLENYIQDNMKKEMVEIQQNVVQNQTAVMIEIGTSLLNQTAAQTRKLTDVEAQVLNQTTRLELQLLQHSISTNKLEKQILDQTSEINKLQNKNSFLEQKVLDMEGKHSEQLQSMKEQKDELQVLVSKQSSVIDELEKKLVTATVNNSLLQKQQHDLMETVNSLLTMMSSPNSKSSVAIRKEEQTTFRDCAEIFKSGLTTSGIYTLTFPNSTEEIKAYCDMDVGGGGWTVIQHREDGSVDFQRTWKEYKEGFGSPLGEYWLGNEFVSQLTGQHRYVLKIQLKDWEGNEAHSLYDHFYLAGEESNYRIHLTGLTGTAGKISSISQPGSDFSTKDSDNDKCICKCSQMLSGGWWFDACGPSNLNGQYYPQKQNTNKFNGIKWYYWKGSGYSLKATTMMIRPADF", "experiment": "neutralization ELISA vs Tie-2-Fc", "method": "(§1) Plates were incubated at room temperature for about 1 hour, after which they were washed five times with PBS containing about 0.1 percent Tween-20. […] Absorbance was then read in a spectrophotomer at 370 nm.", "units": {"IC50": "nM"}}
{"binder": "Con4-40 (C) (Fc fusion) [human IgG1 Fc not written out]GGGGGAQTNIQEECEWDPWTCDHMPGKLE", "IC50": 0.27}
{"target": "T2, rat Ang-2 (rat, UniProt O35462 19-496, limits assumed)", "T2 construct": "also called rAng-2", "T2 sequence (looked up)": "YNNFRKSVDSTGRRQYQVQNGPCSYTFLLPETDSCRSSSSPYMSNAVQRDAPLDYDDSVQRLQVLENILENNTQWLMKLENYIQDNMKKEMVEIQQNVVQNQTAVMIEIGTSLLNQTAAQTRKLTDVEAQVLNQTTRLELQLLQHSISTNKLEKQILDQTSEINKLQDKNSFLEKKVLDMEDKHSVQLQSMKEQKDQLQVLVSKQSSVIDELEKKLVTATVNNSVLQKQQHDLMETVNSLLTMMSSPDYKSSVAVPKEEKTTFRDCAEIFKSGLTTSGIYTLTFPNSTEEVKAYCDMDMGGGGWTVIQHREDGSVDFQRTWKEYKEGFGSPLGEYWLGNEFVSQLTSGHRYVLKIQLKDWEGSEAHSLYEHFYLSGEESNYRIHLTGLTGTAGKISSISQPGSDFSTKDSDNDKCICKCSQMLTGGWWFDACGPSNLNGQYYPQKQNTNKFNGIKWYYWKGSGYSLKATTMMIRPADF", "experiment": "neutralization ELISA vs Tie-2-Fc", "method": "as §1", "units": {"IC50": "nM"}}
{"binder": "Con4-40 (C) (Fc fusion) [human IgG1 Fc not written out]GGGGGAQTNIQEECEWDPWTCDHMPGKLE", "IC50": 0.35}
{"target": "T3, human Ang-2 (human, UniProt O15123 19-496, limits assumed)", "T3 construct": "Sources differ by assay: R&D Systems 623-AN (mixture of 2 truncated versions) for initial screening; also called hAng-2; huAng-2", "T3 sequence (looked up)": "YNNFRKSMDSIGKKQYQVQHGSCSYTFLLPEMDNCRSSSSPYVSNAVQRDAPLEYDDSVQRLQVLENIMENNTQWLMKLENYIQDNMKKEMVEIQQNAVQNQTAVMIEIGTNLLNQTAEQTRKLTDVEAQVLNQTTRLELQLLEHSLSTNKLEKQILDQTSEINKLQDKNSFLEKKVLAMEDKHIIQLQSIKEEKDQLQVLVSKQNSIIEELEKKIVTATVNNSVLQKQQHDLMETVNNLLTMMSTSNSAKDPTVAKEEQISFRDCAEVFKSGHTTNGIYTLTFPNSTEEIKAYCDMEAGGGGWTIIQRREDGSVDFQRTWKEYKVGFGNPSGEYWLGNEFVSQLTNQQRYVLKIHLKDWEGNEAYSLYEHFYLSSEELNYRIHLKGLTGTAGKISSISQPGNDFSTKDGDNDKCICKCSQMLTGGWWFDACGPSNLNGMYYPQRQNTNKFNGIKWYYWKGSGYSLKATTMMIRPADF", "experiment": "neutralization ELISA vs Tie-2-Fc", "method": "as §1", "units": {"IC50": "nM"}}
{"binder": "Con4-40 (C) (Fc fusion) [human IgG1 Fc not written out]GGGGGAQTNIQEECEWDPWTCDHMPGKLE", "IC50": 0.2}
{"target": "T1, murine Ang-2", "experiment": "neutralization ELISA vs Tie-2-Fc", "remark": "another data set of the same source", "method": "(§2) Microtiter plates to which human Ang-2 polypeptide was bound were prepared as described for the Affinity ELISA. […] Next, about 100 microliters per well of goat anti-mouse-IgG-HRP (Pierce Chemical CO., catalog #31432) was added at a dilution of 1:10,000 in PBS containing about 1 percent BSA. Plates were incubated at room temperature for about 1 hour, after which they were washed five times with PBS containing about 0.1 percent Tween-20. About 100 microliters per well of TMB substrate (described above) was then added and color was allowed to develop. Absorbance was then read in a spectrophotomer at 370 nm."}
{"binder": "Con4-L1 (C) (Fc fusion) [human IgG1 Fc not written out]GGGGGAQGSGSATGGSGSTASSGSGSATHKFNPLDELEETLYEQFTFQQGGGGGQEECEWDPWTCEHMLE", "IC50": "0.04 nM"}
{"binder": "2xL1 (C) (Fc fusion, one of the rows may be 2xL1 (N)) [human IgG1 Fc not written out]GGGGGAQKFNPLDELEETLYEQFTFQQGGGGGGGGKFNPLDELEETLYEQFTFQQLE", "IC50": "0.8 nM and 1 nM"}
{"binder": "L1 (C) (Fc fusion) [human IgG1 Fc not written out]GGGGGAQKFNPLDELEETLYEQFTFQQLE", "IC50": "37 nM"}
{"target": "T3, human Ang-2", "experiment": "neutralization ELISA vs Tie-2-Fc", "remark": "another data set of the same source", "method": "as §2"}
{"binder": "Con4-L1 (C) (Fc fusion) [human IgG1 Fc not written out]GGGGGAQGSGSATGGSGSTASSGSGSATHKFNPLDELEETLYEQFTFQQGGGGGQEECEWDPWTCEHMLE", "IC50": "0.05 nM"}
{"binder": "2xL1 (C) (Fc fusion, one of the rows may be 2xL1 (N)) [human IgG1 Fc not written out]GGGGGAQKFNPLDELEETLYEQFTFQQGGGGGGGGKFNPLDELEETLYEQFTFQQLE", "IC50": "0.65 nM and 0.9 nM"}
{"binder": "L1 (C) (Fc fusion) [human IgG1 Fc not written out]GGGGGAQKFNPLDELEETLYEQFTFQQLE", "IC50": "65 nM"}
{"target": "T3, human Ang-2", "experiment": "neutralization ELISA vs Tie-2-Fc", "remark": "another data set of the same source", "units": {"IC50": "nM"}}
{"binder": "L1-5 (N) (Fc fusion) MGAQVKYKPLDELDEILYEQQTFQERLEGGGGG[human IgG1 Fc not written out]", "IC50": 0.05}
{"binder": "L1-9 (N) (Fc fusion) MGAQSKFKPLDELEQTLYEQWTLQHALEGGGGG[human IgG1 Fc not written out]", "IC50": 1.62}
{"binder": "L1-11 (N) (Fc fusion) MGAQQNFKPMDELEDTLYKQFLFQHSLEGGGGG[human IgG1 Fc not written out]", "IC50": 0.07}
{"binder": "L1-12 (N) (Fc fusion) MGAQYKFTPLDDLEQTLYEQWTLQHVLEGGGGG[human IgG1 Fc not written out]", "IC50": 0.08}
{"binder": "L1-13 (N) (Fc fusion) MGAQQEYEPLDELDETLYNQWMFHQRLEGGGGG[human IgG1 Fc not written out]", "IC50": 0.05}
{"binder": "L1-14 (N) (Fc fusion) MGAQSNFMPLDELEQTLYEQFMLQHQLEGGGGG[human IgG1 Fc not written out]", "IC50": 0.11}
{"binder": "L1-15 (N) (Fc fusion) MGAQQKYQPLDELDKTLYDQFMLQQGLEGGGGG[human IgG1 Fc not written out]", "IC50": 0.04}
{"binder": "L1-16 (N) (Fc fusion) MGAQQKFQPLDELEETLYKQWTLQQRLEGGGGG[human IgG1 Fc not written out]", "IC50": 0.11}
{"binder": "L1-17 (N) (Fc fusion) MGAQVKYKPLDELDEWLYHQFTLHHQLEGGGGG[human IgG1 Fc not written out]", "IC50": 0.08}
{"binder": "L1-18 (N) (Fc fusion) MGAQQKFMPLDELDEILYEQFMFQQSLEGGGGG[human IgG1 Fc not written out]", "IC50": 0.16}
{"binder": "L1-19 (N) (Fc fusion) MGAQQTFQPLDDLEEYLYEQWIRRYHLEGGGGG[human IgG1 Fc not written out]", "IC50": 1.26}
{"binder": "L1-22 (N) (Fc fusion) MGAQYKFNPMDELEQTLYEEFLFQHALEGGGGG[human IgG1 Fc not written out]", "IC50": 0.09}
{"binder": "L1-C2 (N) (Fc fusion) MGAQTKFQPLDELDQTLYEQWTLQQRLEGGGGG[human IgG1 Fc not written out]", "IC50": 0.05}
{"binder": "L1-C3 (N) (Fc fusion) MGAQTNFQPLDELDQTLYEQWTLQQRLEGGGGG[human IgG1 Fc not written out]", "IC50": 0.06}
{"binder": "L1-20 (N) (Fc fusion) MGAQEDYMPLDALDAQLYEQFILLHGLEGGGGG[human IgG1 Fc not written out]", "IC50": 0.09}
{"binder": "Con1-4 (C) (Fc fusion) [human IgG1 Fc not written out]GGGGGAQSGQLRPCEEIFGCGTQNLALLE", "IC50": 1.68}
{"binder": "Con1-6 (C) (Fc fusion) [human IgG1 Fc not written out]GGGGGAQGQDLRPCEDMFGCGTKDWYGLE", "IC50": 8.6}
{"binder": "Con1-1 (C) (Fc fusion) [human IgG1 Fc not written out]GGGGGAQAGGMRPYDGMLGWPNYDVQALE", "IC50": 3.08}
{"binder": "Con1-3 (C) (Fc fusion) [human IgG1 Fc not written out]GGGGGAQAPGQRPYDGMLGWPTYQRIVLE", "IC50": 16.4}
{"binder": "12-9-1 (C) (Fc fusion) [human IgG1 Fc not written out]GGGGGAQGFEYCDGMEDPFTFGCDKQTLE", "IC50": 1.84}
{"binder": "12-9-2 (C) (Fc fusion) [human IgG1 Fc not written out]GGGGGAQKLEYCDGMEDPFTQGCDNQSLE", "IC50": 8.42}
{"binder": "12-9-3 (C) (Fc fusion) [human IgG1 Fc not written out]GGGGGAQLQEWCEGVEDPFTFGCEKQRLE", "IC50": 0.81}
{"binder": "12-9-4 (C) (Fc fusion) [human IgG1 Fc not written out]GGGGGAQAQDYCEGMEDPFTFGCEMQKLE", "IC50": 2.05}
{"binder": "12-9-5 (C) (Fc fusion) [human IgG1 Fc not written out]GGGGGAQLLDYCEGVQDPFTFGCENLDLE", "IC50": 1.56}
{"binder": "12-9-6 (C) (Fc fusion) [human IgG1 Fc not written out]GGGGGAQHQEYCEGMEDPFTFGCEYQGLE", "IC50": 0.95}
{"binder": "12-9-7 (C) (Fc fusion) [human IgG1 Fc not written out]GGGGGAQMLDYCEGMDDPFTFGCDKQMLE", "IC50": 0.93}
{"binder": "12-9-C2 (C) (Fc fusion) [human IgG1 Fc not written out]GGGGGAQLQDYCEGVEDPFTFGCENQRLE", "IC50": 1.41}
{"binder": "12-9 (C) (Fc fusion, also called Parent: 12-9 (C)) [human IgG1 Fc not written out]GGGGGAQFDYCEGVEDPFTFGCDNHLE", "IC50": 15}
{"binder": "Con4-40 (C) (Fc fusion) [human IgG1 Fc not written out]GGGGGAQTNIQEECEWDPWTCDHMPGKLE", "IC50": 0.1}
